According to PubChem BioAssay AID2202238 (Ras Initiative Chemistry Research Team, Frederick National …, 2025):
Some of the results follow. Further columns of the screen follow, without active or inactive calls.

Target: GTPase KRas (Homo sapiens) (UniProt P01116)
Assay: Cysteine mutants labelled by reactive fragments (mass read-out) (AID 2202238)
Parameters: protein at 5 µM with 500 µM competing thiol for 1.5 h
Details: KRAS G12D cysteine mutants, disulfide tethering, MALDI-TOF labeling, stronger effect = higher value, fragment at 500 µM
[1] = measured here: G75C mutant labeling
[2] = measured here: H94C mutant labeling
[3] = measured here: I36C mutant labeling
[4] = measured here: L120C mutant labeling
[5] = measured here: M67C mutant labeling
[6] = measured here: M72C mutant labeling
[7] = measured here: N86C mutant labeling
[8] = measured here: P121C mutant labeling
[9] = measured here: S122C mutant labeling
[10] = measured here: S136C mutant labeling
[11] = measured here: G60C mutant labeling
[12] = measured here: N26C mutant labeling

UniProt P01116, sequence (P01116 whole entry, looked up, the tested form may be a part): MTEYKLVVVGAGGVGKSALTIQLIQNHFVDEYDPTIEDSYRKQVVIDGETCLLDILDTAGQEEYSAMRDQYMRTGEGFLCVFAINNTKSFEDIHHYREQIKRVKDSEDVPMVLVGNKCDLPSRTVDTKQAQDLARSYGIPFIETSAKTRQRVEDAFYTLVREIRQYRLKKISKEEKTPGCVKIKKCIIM

SMILES	percent labeling [1] [%]	percent labeling [2] [%]	percent labeling [3] [%]	percent labeling [4] [%]	percent labeling [5] [%]	percent labeling [6] [%]	percent labeling [7] [%]	percent labeling [8] [%]	percent labeling [9] [%]	percent labeling [10] [%]	percent labeling [11] [%]	percent labeling [12] [%]
O=C(CCS)NCCCN(C1CC1)S(=O)(=O)c1cccc(F)c1	14.5	29.8	29	28.2	33.3	33.8	21.3	25.4	27.3	53.4		
O=C(CCS)NCc1cc(Br)cc(Cl)n1	13.9	37.4	40.2	30.5	47.8	42.5	30	31.6	30.8	50.4		
Cc1ccn(-c2cccc(NC(=O)CCS)c2)n1	13.9	25.3	17.6	20.9	12.9	33.8	23.1	16.5	20.4	41.2		
CC(C)(C)OC(=O)N1CCC(O)(C2CCN(C(=O)CCS)CC2)CC1	14.1	24.3	24.4	26.2	30.2	19.1	24.8	28.2	26.4	45.9		
O=C(CCc1cnc2ccccc2c1)NCCS	25.4	33.7	47	34.1	41.4	31.9	25.5	32.4	29.1	44.8	44.1	38.5
COc1ccc(OC)c(-c2cc(C(=O)NCCS)no2)c1	19.1	14.5	12.1	13.9	11	57.7	12.4	14.1	9.8	13.3	26.2	32.9
Cc1c(-c2ccccc2)oc2c(C(=O)NCCS)cccc2c1=O	3.5	13.5	8	3.5	9.2	20.9	3.6	3.3	3.1	16.3	23.3	27.7
CC1Cn2nc(C(=O)NCCS)cc2C(=O)N1 (stereo not drawn)	15.8	25.9	21.3	39.4	31.4	30.4	25.2	25.9	30.5	44.6	27.3	35.7
O=C(CCCc1ncc(-c2ccccc2)o1)NCCS	19	24.8	17.1	24.6	40.2	25.9	14.7	20.7	19	29.9	30.5	37.1
Cn1cc([C@@H]2OCC[C@H]2C(=O)NCCS)cn1	7.1	23.4	23.5	22.2	27.9	9.9	17.6	28.1	24.5	38.7	16.2	27.3
O=C(CCc1nnc2ccc(Cl)nn12)NCCS	13.4	30.4	23	43.2	24.6	16.2	25.2	32	23.1	29.6	29.3	32.4
Cc1nc(COc2cccc(C(=O)NCCS)c2)no1	21.5	42.2	29.8	43.9	32.9	54.3	28	27.5	28.3	48.3	39.5	44.8
O=C(NCCS)c1cc2c(Br)cccc2cn1	23.3	18.8	11	16.8	17.7	57.9	13	17.8	9	18.6	29	29.1
Cc1ccc(NC(=O)C2(CNC(=O)CCS)CCCC2)cc1C	10	28.1	21.4	18.3	22.7	21.6	16.9	23	19.6	34.9		
COc1cc(CCNC(=O)CCS)ccc1O	13.1	34.5	43.2	30.9	34	29.3	27.5	39.6	37.5	57.6		
O=C(CCS)Nc1cccc(CN2CCCC2=O)c1	13.7	40.9	36.9	34.6	33.3	33.5	29	32	34	54.6		
O=C(CCS)NCCn1ccc(C(F)(F)F)n1	10.6	31.4	33.2	33.1	29	24.5	28.3	32.7	37.2	47		
Cc1nc(-c2cccc(C(=O)NCCS)c2)cs1	13.3	23	14.5	22.9	16.7	50.3	15.7	20	15.3	28.3	32	41.1
CC1(c2cccc(C(=O)NCCS)c2)NC(=O)NC1=O (stereo not drawn)	20.2	43.4	28.2	48.4	40.2	50.4	44.6	34.6	42.2	51.6	42.3	50.8
Cn1c(C(=O)NCCS)c(Cl)c2ccccc21	20.5	12.4	7.6	11.4	8.3	49.4	10.5	21.4	9.1	18.4	30.5	24.6
O=C(NCCS)c1ccc(Cn2cc(Cl)cn2)o1	22.9	34.1	23.3	38.4	43.3	42.7	26	25.1	31.4	47.2	36.6	39.5
NC(=O)c1cc(NC(=O)CCS)cc(C(N)=O)c1	17.4	26.7	38.2	33.9	30.3	34.3	22.3	35.1	43.8	46		
O=C(CCS)Nc1cccc(Cn2cccnc2=O)c1	8.2	27.5	32.4	28.1	31.7	24.4	24.4	23.2	30.4	49.9		

SMILES	percent labeling [1] [%]	percent labeling [2] [%]	percent labeling [3] [%]	percent labeling [4] [%]	percent labeling [5] [%]	percent labeling [6] [%]	percent labeling [7] [%]	percent labeling [8] [%]	percent labeling [9] [%]	percent labeling [10] [%]	percent labeling [11] [%]	percent labeling [12] [%]
CCOc1ccc2ccccc2c1C(=O)NCCS	23	37.1	20.1	27.3	27.2	40.7	19.9	29.1	17.8	36.8	65.3	40.5
O=C(CCS)NCc1ccn(-c2c(F)cccc2F)n1	14.7	41	38.5	43.2	39.4	36.6	36.3	36.2	43.2	55.5		
COC(=O)C(Cc1cn(C)nc1C)NC(=O)CCS (stereo not drawn)	6	21.4	23.7	23.9	35.3	9	6.3	27.4	27.1	39.3		
O=C(Cc1csc(-c2cnccn2)n1)NCCS	18.9	32.7	31.4	57.5	36.9	42.7	30.5	34.6	32	43.9	44.9	41.1
CCC(OC1CCCC(C)C1)C(=O)NCCS (stereo not drawn)	14.9	27.1	13.5	28.8	21.9	17.5	17.5	22.1	20.6	44.3	40.5	28.3
O=C(CCn1sc2ccccc2c1=O)NCCS	43.2	16.8	7.3	15	8.2	12.5	7.8	9.3	11.2	9.4	19.6	8.7
CC(C)c1ccc2c(c1)CC[C@H]1[C@](C)(CNC(=O)CCS)CCC[C@]21C	13.1	80.6	11.5	6.3	10.1	18	5.3	9	4	31.1		
CC1(CNC(=O)CCS)CCS(=O)(=O)CC1	7.3	29.7	34.5	32.8	28.8	9.7	15.7	31.2	33	42.6		
O=C(CCS)N1CCCN(C(=O)c2ccc[nH]c2=O)CC1	6	22.1	25.7	24.7	42.6	10.1	11.2	28.8	35.6	46.4		
O=C(CCS)N1CCN(c2cncc3nnnn23)CC1	10.9	0	14.6	0	6.5	2.8	0	9.4	7.5	0		
Cc1ccc(-c2cc(C(=O)NCCS)[nH]n2)cc1	11.7	8.4	8.3	11.9	6	63.2	7.7	7.2	6.2	13.6	7.2	30.8
O=C1CC(C(=O)NCCS)C2CCCCC2N1 (stereo not drawn)	11.1	35.5	24.5	34.6	33.4	17.1	24.5	31.4	29.4	44.9	21.6	35.6
CC1C(C(=O)NCCS)CCN1c1ccccc1 (stereo not drawn)	0	6.6	0	0	5.5	0	0	7.3	0	9.8	27.7	5.3
O=C(CCS)NC1CCC2(CC1)CC(O)C2 (stereo not drawn)	14	33.4	25.2	28.4	35.7	25.9	22.9	38.2	35.9	50.8		
O=C(O)Cc1ccc(S(=O)(=O)N2CCC(C(=O)NCCS)CC2)cc1	15.7	28.6	21.8	33.7	22.8	13.2	23.3	30.9	28.4	31.4	28.4	39.7
COC(=O)c1cc(=O)[nH]c2c1CN(C(=O)CCS)CC2	10.6	25.5	34.3	21.4	31.5	23.2	21.1	25.4	29.1	58.1		
COc1c(C)cnc(Cn2ccc(NC(=O)CCS)n2)c1C	18.3	41.6	39.8	33.7	33.5	34.2	37.7	28.4	26.4	47.2		
COc1ccc2c(c1)c(C(=O)NCCS)c(C)n2C	8.6	25.3	13.7	19.7	19.3	24.7	15.4	12.8	13.6	33.3	33.7	41.6
O=C(CCS)N1CCN(C(=O)Nc2ccc(Cl)cc2)CC1	8.9	18.1	17.7	14.5	16.7	14.9	18.3	18.6	16.4	30.1		
O=C(CCS)Nc1ccc2c(c1)ncn2CC(F)(F)F	10.6	24.5	24.6	27	25.7	25.7	17.1	21.7	25.3	36.4		
CC1(C)CC(C(=O)NCCS)C1C(F)(F)F (stereo not drawn)	9.6	21.7	14.8	18.1	17.6	18.7	21.7	20	22.2	30.5	37.7	26.5
C[C@H](C(=O)NCCS)N1Cc2ccccc2C1=O	13.6	30.9	25.1	43.5	38.7	26.9	23.5	39.3	30.2	58.6	32.6	38.9
CCOC(=O)c1[nH]ncc1C1CCN(C(=O)CCS)CC1	20.1	36	41.1	33.1	48.9	43	19.6	39.8	44.6	63.5		
